The whole screen tested about 48,000 compounds, of which about 550 (1.1%) were called active. About 4% were inconclusive and are not listed. Rule as the data show it: active = potency below about 15 µM; inconclusive = mostly about 16 µM to 33 µM; inactive = weaker than that. The list shows a part of the results.
What follows are compounds tested against Lysosomal acid glucosylceramidase (Homo sapiens) (UniProt P04062) (assay: Glucocerebrosidase). Details: purified enzyme, resorufin glucoside fluorescence (screen aimed at inhibitors), 20 min.
UniProt P04062, sequence (P04062 whole entry, looked up): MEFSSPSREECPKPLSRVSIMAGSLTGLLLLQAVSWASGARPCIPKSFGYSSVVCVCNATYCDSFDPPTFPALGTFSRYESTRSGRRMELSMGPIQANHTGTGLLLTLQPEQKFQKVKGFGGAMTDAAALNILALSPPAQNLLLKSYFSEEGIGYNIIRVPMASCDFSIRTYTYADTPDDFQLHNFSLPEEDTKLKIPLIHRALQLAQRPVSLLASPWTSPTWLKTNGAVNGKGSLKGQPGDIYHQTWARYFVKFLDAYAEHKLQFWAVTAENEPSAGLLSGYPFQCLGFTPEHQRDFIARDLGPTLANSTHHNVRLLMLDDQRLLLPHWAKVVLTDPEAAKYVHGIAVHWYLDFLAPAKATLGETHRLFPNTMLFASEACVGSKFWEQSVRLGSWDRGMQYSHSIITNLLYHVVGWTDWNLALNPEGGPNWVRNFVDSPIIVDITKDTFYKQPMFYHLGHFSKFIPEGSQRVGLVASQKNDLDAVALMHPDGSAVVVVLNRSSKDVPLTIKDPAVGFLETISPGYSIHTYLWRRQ
Method in brief: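 Normal human glucocerebrosidase (0.2 nM final) was assayed with resorufin β-D-glucopyranoside (30 uM final) in 50mM citric acid/KH2PO4, 10mM sodium taurocholate, 0.01% tween-20, pH 5.9. Compounds were titrated; fluorescence (Ex 548, Em 600) read after 20 min at RT.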
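Also: the screen sought inhibitors.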
Potency is read from the fitted curve at half-maximal effect.

Potency, inactive:
Cn1c(=O)c2c(nc(N3CCOCC3)n2CC(=O)c2ccccc2)n(C)c1=O > 76.9 µM
CCOC(=O)N1CCN(CC(=O)Nc2ccc(C)c(Br)c2)CC1 > 76.9 µM
O=S1(=O)N=C(N2CCN(Cc3ccccc3)CC2)c2ccccc21 > 76.9 µM
Nn1cc(-c2ccccc2)nc1SCC(=O)N1CCN(S(=O)(=O)c2ccccc2)CC1 > 76.9 µM
NC(=O)CS(=O)(=O)c1nc2ccccc2n1Cc1ccccc1F > 76.9 µM
O=C1CCCCCN1Sc1ccccc1 > 76.9 µM
C/C=C/c1ccc(OCCCCn2cncn2)c(OC)c1 > 76.9 µM
NC(=O)c1cccc2c(=O)oc3ccccc3c12 > 76.9 µM
N#C/C(=C(/O)COC(=O)c1ccc2c(c1)OCCO2)c1nc2ccccc2[nH]1 > 76.9 µM
Brc1c(OCCOCCn2cncn2)ccc2ccccc12 > 76.9 µM
Cc1ccccc1NC(=O)N1CCCC(c2nc(-c3ccc(F)cc3)no2)C1 (stereo not drawn) > 76.9 µM
O=C(CNS(=O)(=O)c1ccc(F)cc1)N1CCN(c2ccccc2)CC1 > 76.9 µM
COc1ccc(NC(=O)CSc2nnc(-c3ccccn3)n2N)cc1 > 76.9 µM
Cc1ccccc1CS(=O)(=O)Cc1ccc(C(=O)NCCCN2CCCC2=O)o1 > 76.9 µM
O=C(c1cccs1)N1CCN(S(=O)(=O)N2CCOCC2)CC1 > 76.9 µM
CNc1nc(SC)nc(N2CCOCC2)n1 > 76.9 µM
O=C1CSc2ccc(C(=O)N3CCN(c4ccccn4)CC3)cc2N1 > 76.9 µM
CC(C)(C)n1ncc2c(=O)n(CC(=O)N3CCc4ccccc43)cnc21 > 76.9 µM
COc1ccc(-c2sccc2C(C)C(=O)O)cc1 (stereo not drawn) > 76.9 µM
COCCNC(=O)Cn1cnc2ccc(S(=O)(=O)N3CCC(C)CC3)cc2c1=O > 76.9 µM
CC1CCN(C(=O)CN(c2ccc3c(c2)OCO3)S(C)(=O)=O)CC1 > 76.9 µM
CN(C)c1nc(Oc2ccc(N)cc2)nc(N(C)C)n1 > 76.9 µM
Cc1oc(-c2ccc(F)cc2)cc1-c1nn2c(-c3ccoc3C)nnc2s1 > 76.9 µM
COC(=O)c1ccc(S(=O)(=O)N2C3CCC2CC(NC(=O)NC2CCCCC2)C3)cc1 (stereo not drawn) > 76.9 µM
CCOc1cc(C#N)c(NC(=O)c2cccnc2)cc1OCC > 76.9 µM
Cc1nc(NC(=O)c2ccco2)sc1C(=O)Nc1ccc(Br)cc1 > 76.9 µM
Cn1cc(C(=O)NC2CCCCCC2)c(=O)c2cc(S(=O)(=O)N3CCCC3)ccc21 > 76.9 µM
O=C1CC(Nc2ccc(N3CCOCC3)cc2)C(=O)N1C1CCCCC1 (stereo not drawn) > 76.9 µM
CCn1c(SCC(=O)Nc2nc3c(s2)CCCC3)nnc1-c1ccccc1 > 76.9 µM
COc1cc(C(=O)NCC(=O)OCC(=O)c2ccc[nH]2)cc(OC)c1OC > 76.9 µM
COCCCNC(=O)c1c(N)n(-c2ccc3c(c2)OCO3)c2nc3ccccc3nc12 > 76.9 µM
NS(=O)(=O)c1ccc(CCNC(=O)c2cccnc2)cc1 > 76.9 µM
CCN(Cc1ccccc1)C(=O)CSc1nc(C)cc2c1C(=O)OC2 > 76.9 µM
O=C1CS/C(=N\c2ccccn2)N1C1CCCCC1 > 76.9 µM
O=C(Nc1cccc(C(F)(F)F)c1)C1C2CC3OC(=O)C1C3C2 (stereo not drawn) > 76.9 µM
O=c1c2cc(Cl)ccc2nc2ccc(N3CCCC3)nn12 > 76.9 µM
O=C(NCCCn1ccnc1)c1cc(-c2ccc3c(c2)OCO3)on1 > 76.9 µM
O=C(NCc1ccco1)c1csc2c1CCCCC2 > 76.9 µM
O=C1NC(=O)C(CC(=O)N(Cc2ccco2)C2(C(=O)NC3CCCCC3)CCCCC2)N1 (stereo not drawn) > 76.9 µM
O=C(NCc1cccnc1)Nc1ccc(F)cc1F > 76.9 µM
CC(C)=CCSc1nnc(CCNC(=O)OC(C)(C)C)o1 > 76.9 µM
O=C(O)Cn1nnnc1SCC(=O)Nc1ccc(OC(F)(F)F)cc1 > 76.9 µM
CC(C)(C)NC(=O)C(c1ccccc1)N(C(=O)c1ccco1)C1CC1 (stereo not drawn) > 76.9 µM
Cc1ccccc1Nc1nc(N)nc(CSc2nnc3sc4ccccc4n23)n1 > 76.9 µM
CC(C)C(c1nnnn1CCc1ccccc1)N1CCN(C(=O)c2ccco2)CC1 (stereo not drawn) > 76.9 µM
CCCn1c(=O)c(C(=O)Nc2nnc(CC)s2)c(O)c2ccccc21 > 76.9 µM
COc1ccccc1Oc1ccc(S(=O)(=O)N2CCCC2)cc1 > 76.9 µM
CC(C)(C)OC(=O)N1CCC(C(=O)N2CCC[C@H]2C(=O)O)CC1 > 76.9 µM
COC(=O)Nc1ccc(S(=O)(=O)N(CCO)CC(F)(F)C(F)F)cc1 > 76.9 µM
O=c1cc(-c2ccccc2)nc2nc(-c3ccco3)[nH]n12 > 76.9 µM
Cc1nc(N)c(C#N)c(-c2cccnc2)c1C > 76.9 µM
COc1ccccc1Nc1nc(N)nc(CSc2nnc(C)s2)n1 > 76.9 µM
C=CCn1c(COc2ccc(CC)cc2)nnc1SC/C(O)=C(\C#N)c1nc2ccccc2[nH]1 > 76.9 µM
COC(=O)c1cn(NC(=O)c2cnccn2)c(=O)c2ccccc12 > 76.9 µM
CCOC(=O)c1ccc(S(=O)(=O)N2CCN(CC(=O)NC(=O)NC3CCCCC3)CC2)cc1 > 76.9 µM
COc1ccc(NC(=O)CSc2nnc(Cc3cccn3C)n2CCc2ccccc2)cc1OC > 76.9 µM
Cc1nc(CN2CCN(C(=O)c3ccc(Br)cc3)CC2)cs1 > 76.9 µM
CCOc1ccc(C(=O)NCc2ccncc2)cc1 > 76.9 µM

Source: PubChem BioAssay AID360 (National Center for Advancing Translational Sciences (NCATS), 2006)
